Consider 167 variants from the RNAGym collection of RNA variant scans (doi:10.7554/elife.90254).

Sequences and labels used below:
B1: LINE1-mini (parent)
chain: GGCAGAGCUCAACACAGCGUGGCAAAGUGGCUGUGGCUAGACUGCC

Read counts are not given, so values of variants with three or more changes are uncertain.

The variants in this series derive from B1. The series is described as follows: self-cleavage, relative activity (ratio to wild type); higher = more cleavage; in vitro, sequencing; the parent is a self-cleaving ribozyme.
Regarding C3G C8U C10A C18U G22A U38C, the self-cleavage turned out to be 0.03.
To C3G U9A C18G G19U C23U A26C belongs 0.03.
For C3A U32G C45A, the self-cleavage came to 0.17.
As for C3G U28G U32C G33A, the self-cleavage turned out to be 0.04.
Turning to C3G C18U C31G U32A C46A, the self-cleavage was found to be 0.03.
C3U A4C G17C G35U: the self-cleavage worked out at 0.03.
With C3G A4C C8U G22U, the self-cleavage was determined as 0.08.
As for C3G A39G U43A, the self-cleavage was 0.07.
For the variant C3G C18A A26C G35A G44A, the self-cleavage was 0.02.
For the variant C3G A6G C18A A25G C31A G35C C37U, the self-cleavage was 0.01.
Take C3G A25C G27A U28G G35A U43C G44C C46G: the self-cleavage came out at 0.01.
To C3U A12C C13A C23U A25G U28A belongs 0.01; to C3G A6C C10A, 0.04; to C3A U20C C31A C42A, 0.06.
Regarding C3U A4C G7A C23U, the self-cleavage was 0.44.
Take C3G C8A C23G: the self-cleavage turned out to be 0.08.
In the case of C3G A12U A14G G29C, the self-cleavage is 0.06.
On to C3A G33U G35C, for which the self-cleavage was 0.14.
Next, C3G G7U A26U C46A: 0.15; C3G A26C G29U A41U C46U: 0.32.
With C3A G30U G36U, the self-cleavage was 0.08.
Consider C3A U28A C31G G40A, for which the self-cleavage turned out to be 0.13.
As for C3A G33U C42A, the self-cleavage came out at 0.52.
As to C3U A6C C23G C31U G36U U43A, the self-cleavage was determined as 0.03.
To C3U A6C C31A belongs 0.08; to C3G G29U C45U, 0.45; to C3U A4G A16U U34C A39G, 0.19.
For the variant C3G C18A G27A, the self-cleavage was 0.24.
Consider C3U A11G A24C A25C G29A, for which the self-cleavage worked out at 0.02.
Take C3G G17C G33A G40C: the self-cleavage stood at 0.2.
For the variant C3G A6U A12C U32C C37A, the self-cleavage amounted to 0.02.
For the variant C3U A12G C42G, the self-cleavage came to 0.05.
In the case of C3U A4G A24U, the self-cleavage stood at 0.15.
As for C3A U9A G22A U28A C45A, the self-cleavage is 0.18.
Regarding C3G C23A U34G, the self-cleavage was determined as 0.07.
For the variant C3G C8A C10A G22A, the self-cleavage was found to be 0.05.
On to C3A U9A A41U, for which the self-cleavage stood at 0.04.
In the case of C3G G7A C10A U20C A26G G27C U32A G33U G40U, the self-cleavage was 0.03.
As for C3G A4C C13U G30C C31U U38G C45G, the self-cleavage was found to be 0.02.
C3A U20A G30A C37U: the self-cleavage came out at 0.8.
With C3G U20A U38A G44C, the self-cleavage amounted to 0.16.
On to C3G A4G C8A U9G, for which the self-cleavage was 0.3.
For C3A G30A G40U, the self-cleavage worked out at 0.14.
Regarding C3G G29U G44A, the self-cleavage was 0.44.
C3G G5A C13A G19U C31A U32C: the self-cleavage was 0.09.
To C3G G33A C42U C46A belongs 0.09; to C3A U9C G17U, 0.05; to C3U A6G U20A C23U, 0.03.
Regarding C3G G17C C18A G21U, the self-cleavage was found to be 0.02.
On to C3G G29A U38C, for which the self-cleavage was 0.31.
For the variant C3G G30C C37A C46A, the self-cleavage worked out at 0.83.
Turning to C3G C10U C13U G29A G30A U34A A39U C46U, the self-cleavage came out at 0.05.
Take C3A U32A G35A U38A G40A: the self-cleavage is 0.09.
Next, C3U A4C C13U C31G: 0.07; C3G C10A A14G G21C A26G U43C: 0.64.
As to C3G U9G G21U C46G, the self-cleavage amounted to 0.16.
For C3G C10U U43A, the self-cleavage was found to be 0.06.
With C3U A12U G36U C37A, the self-cleavage amounted to 0.05.
For the variant C3U A4U C10U, the self-cleavage turned out to be 0.24.
Regarding C3U A14C C23U A24U U38A, the self-cleavage came to 0.17.
Regarding C3G C15A G40U, the self-cleavage was determined as 0.07.
In the case of C3A G30C G35C G40A, the self-cleavage is 0.27.
In the case of C3G A24U C31U, the self-cleavage was found to be 0.04.
To C3G A25G G35C A39G belongs 0.02.
In the case of C3G G5U C8U, the self-cleavage was found to be 0.08.
For the variant C3U A4C G17U U28G, the self-cleavage is 0.03.
Turning to C3G G19A C23G, the self-cleavage came out at 0.39.
For C3G C23U U32C U38A A41C, the self-cleavage is 0.28.
Take C3G C13A A25G: the self-cleavage is 0.11.
For the variant C3U A4U A11G C18G G19C C31A, the self-cleavage came out at 0.02.
Consider C3G A4C A25G U28C U32C G40C, for which the self-cleavage was found to be 0.11.
Consider C3G G27U C42A, for which the self-cleavage worked out at 0.01.
In the case of C3G C42A C45U, the self-cleavage stood at 0.25.
As to C3U A12G G19U G33U, the self-cleavage turned out to be 0.05.
Next, C3A U20A A26G G33A U43G: 0.02; C3G C8G C10A C45A: 0.02; C3G C8G U9G A12C G22C G30C G33U G44C: 0.
As for C3G C18U G44U, the self-cleavage is 0.43.
As for C3G G5C A6C, the self-cleavage amounted to 0.3.
Next, C3G A14G C46A: 0.08; C3G C15G G36A: 0.07; C3U A6C U20G: 0.33.
Take C3G C15U G30A G40A: the self-cleavage stood at 0.25.
Regarding C3G G19A C23G A41U, the self-cleavage came to 0.11.
Next, C3G A6U A14C G19U U34G: 0.11.
Next, C3G C8U G17C A41C: 0.05.
Turning to C3G U9G C18U C31G, the self-cleavage was 0.06.
To C3U A4C G5A U9C A14G belongs 0.03; to C3G C10A G19C U20A C45U, 0.02; to C3G G7C A26U G44U, 0.02.
On to C3G G17A C18G U28G, for which the self-cleavage is 0.33.
On to C3G G21U G27U G29A, for which the self-cleavage turned out to be 0.16.
In the case of C3G A24G A25C G29C G33C, the self-cleavage is 0.29.
As to C3G G5U A26C G27C G35U, the self-cleavage was 0.14.
For the variant C3U A4U A6C U9C, the self-cleavage came to 0.07.
As to C3U A14C G30U, the self-cleavage is 0.19.
To C3G C13A C18U G33C belongs 0.09; to C3G G21U G40A, 0.07; to C3G U9A G17A, 0.18.
With C3G A26U G36U, the self-cleavage came out at 0.31.
To C3G U9C U34G belongs 0.01; to C3U A4U C10A G19A G21U C23A U32A, 0.01.
For the variant C3U A6C G22A C23U, the self-cleavage worked out at 0.09.
Regarding C3G C8G C13U C15G U28A, the self-cleavage is 0.04.
As for C3G C10A C15A A16U C42U C45U, the self-cleavage was 0.02.
C3G G27U G30U: the self-cleavage came to 0.54.
Take C3A U9A C10G: the self-cleavage was found to be 0.07.
Consider C3U A11U G22C, for which the self-cleavage stood at 0.03.
C3G C18U C31G G33A G40U: the self-cleavage turned out to be 0.03.
Next, C3G G5U G35U: 0.1; C3G U9C A25C G27A: 0.02; C3G U20C C46A: 0.95.
To C3G A4C C8U A16G G21U belongs 0.05; to C3A U20A G22A, 0.12.
To C3A U9G C13U U34A belongs 0.21; to C3A U32G C37U G40C, 0.03; to C3U A14G A26U, 0.24.
Consider C3G G19C G22U G33A A39C, for which the self-cleavage was 0.04.
Turning to C3G A4C C15U, the self-cleavage is 0.03.
In the case of C3G A11U U20C G22A U28A U34C, the self-cleavage came out at 0.02.
Next, C3G A26C G44U: 0.52; C3G G5C U34G: 0.08; C3G C8A C15A C31U C37G: 0.3.
C3U A6G C10U: the self-cleavage amounted to 0.03.
Next, C3G A11U G19U: 0.03.
For the variant C3G C8G U9C A12C A25G G27U C46U, the self-cleavage came to 0.01.
Next, C3G U20G A25U G44C: 0.78; C3G C23A U32A G33A C42G: 0.07.
As to C3G A4C G5U G7A C8G U9C C10U A11C C13A, the self-cleavage came to 0.02.
Regarding C3U A6U A16G, the self-cleavage came to 0.03.
Take C3U A4U U9G G22A G29C: the self-cleavage stood at 0.03.
To C3G C8A A14G belongs 0.51.
Regarding C3A G33U U34A, the self-cleavage was found to be 0.21.
Turning to C3A U9G C46A, the self-cleavage was found to be 0.04.
With C3A U9C C23G G35U C45U, the self-cleavage is 0.02.
As to C3G C8U C10A U38A, the self-cleavage stood at 0.02.
Next, C3G C10U U38A: 0.06; C3G G5C G17A U28G G30A G44C: 0.01.
For C3G C10A A12C A16U G29A, the self-cleavage worked out at 0.01.
Take C3G G27C G30U U38A G40A: the self-cleavage is 0.2.
On to C3G A14G G29U, for which the self-cleavage came to 2.02.
In the case of C3G A25C A39U, the self-cleavage was 0.07.
C3A U9A U34A G40A: the self-cleavage was 0.51.
Take C3G A6C G29U C31A: the self-cleavage is 0.03.
In the case of C3U A4C A12U C42A, the self-cleavage came to 0.13.
To C3G A4U A6U G17C C23G G36U belongs 0.04.
C3A U9A A16G: the self-cleavage came out at 0.58.
C3G A14U C15A A24C C46A: the self-cleavage came out at 0.07.
As for C3U A14G G33U U34A, the self-cleavage is 0.11.
Next, C3G C15U G30C: 0.24; C3G C42A C46U: 0.06.
C3G C15U C46U: the self-cleavage stood at 0.19.
To C3U A4U C13A U32G G36A belongs 0.07; to C3G C10A G27C C31U, 0.05.
For C3G A16U G21U G36U, the self-cleavage came out at 0.14.
With C3A G30C U43G C45A, the self-cleavage stood at 0.03.
As to C3U A4C A6U A12U U34C, the self-cleavage was found to be 0.04.
For the variant C3G G17C A25G G33C, the self-cleavage came to 0.05.
Regarding C3G A6U C18U, the self-cleavage came to 0.06.
For C3G A12U G17U C31U, the self-cleavage was determined as 0.12.
To C3G A12U U20C G22A G29U belongs 0.06; to C3U A4U A24U U34C, 0.01.
Next, C3U A12C C13U C31A: 0; C3U A11U C13A A14G: 0.04; C3G A14C G19C G33A C45G: 0.01.
Consider C3U A12U A14C, for which the self-cleavage stood at 0.03.
Next, C3U A12U A14G: 1.21.
